# The other results are listed elsewhere or left out.
# B1: PA-IL (Pseudomonas aeruginosa), Q05097 (protein)
# chain: MAWKGEVLANNEAGQVTSIIYNPGDVITIVAAGWASYGPTQKWGPQGDREHPDQGLICHDAFCGALVMKIGNSGTIPVNTGLFRWVAPNNVQGAITLIYNDVPGTYGNNSGSFSVNIGKDQS
# How the values were obtained:
# Assay in all cases: glycan array binding signal (z-score within array); higher = stronger binding
# Conditions in all cases: glycan notation: IUPAC condensed, linker removed
# [1] = biological target: Fuc(a1-2)[Gal(a1-3)]Gal(b1-3)GlcNAc(b1-6)GalNAc
# How it was run: (§1)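 Columns mapping to the same glycan were averaged after glycan names were converted to IUPAC-condensed notation. The data come from 3228 arrays in the Consortium for Functional Glycomics database, limited to those with an available protein sequence. Binding is reported as a within-array Z-score averaged across arrays of one protein sequence and across linkers.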
# [2] = biological target: Fuc(a1-2)[Gal(a1-3)]Gal(b1-4)Glc
# How it was run: as §1
# [3] = biological target: Fuc(a1-2)[Gal(a1-3)]Gal(b1-4)GlcNAc
# How it was run: as §1
# [4] = biological target: Fuc(a1-2)[Gal(a1-3)]Gal(b1-4)GlcNAc(b1-2)Man
# How it was run: as §1
# [5] = biological target: Fuc(a1-2)[Gal(a1-3)]Gal(b1-4)GlcNAc(b1-2)Man(a1-3)[Fuc(a1-2)[Gal(a1-3)]Gal(b1-4)GlcNAc(b1-2)Man(a1-6)]Man(b1-4)GlcNAc(b1-4)GlcNAc
# How it was run: as §1
# [6] = biological target: Fuc(a1-2)[Gal(a1-3)]Gal(b1-4)GlcNAc(b1-2)Man(a1-3)[Fuc(a1-2)[Gal(a1-3)]Gal(b1-4)GlcNAc(b1-2)Man(a1-6)]Man(b1-4)GlcNAc(b1-4)[Fuc(a1-6)]GlcNAc
# How it was run: as §1
# [7] = biological target: Fuc(a1-2)[Gal(a1-3)]Gal(b1-4)GlcNAc(b1-3)GalNAc
# How it was run: as §1
# [8] = biological target: Fuc(a1-2)[Gal(a1-3)]Gal(b1-4)GlcNAc(b1-6)GalNAc
# How it was run: as §1
# [9] = biological target: Fuc(a1-2)[Gal(a1-3)]Gal(b1-4)[Fuc(a1-3)]Glc
# How it was run: as §1
# [10] = biological target: Fuc(a1-2)[Gal(a1-3)]Gal(b1-4)[Fuc(a1-3)]GlcNAc
# How it was run: as §1
# [11] = biological target: Fuc(a1-2)[Gal(a1-3)]Gal(b1-4)[Fuc(a1-3)]GlcNAc(b1-3)GalNAc
# How it was run: as §1
# [12] = biological target: Fuc(a1-2)[Gal(a1-4)]Gal(b1-4)GlcNAc
# How it was run: as §1
# [13] = biological target: Fuc(a1-2)[GalNAc(a1-3)]Gal
# How it was run: as §1
# [14] = biological target: Fuc(a1-2)[GalNAc(a1-3)]Gal(b1-3)GalNAc(a1-3)[Fuc(a1-2)]Gal(b1-4)GlcNAc
# How it was run: as §1
# [15] = biological target: Fuc(a1-2)[GalNAc(a1-3)]Gal(b1-3)GalNAc(b1-3)Gal(a1-4)Gal(b1-4)Glc
# How it was run: as §1
# [16] = biological target: Fuc(a1-2)[GalNAc(a1-3)]Gal(b1-3)GlcNAc
# How it was run: as §1
# [17] = biological target: Fuc(a1-2)[GalNAc(a1-3)]Gal(b1-3)GlcNAc(b1-2)Man(a1-3)[Fuc(a1-2)[GalNAc(a1-3)]Gal(b1-3)GlcNAc(b1-2)Man(a1-6)]Man(b1-4)GlcNAc(b1-4)GlcNAc
# How it was run: as §1
# [18] = biological target: Fuc(a1-2)[GalNAc(a1-3)]Gal(b1-3)GlcNAc(b1-2)Man(a1-3)[Fuc(a1-2)[GalNAc(a1-3)]Gal(b1-3)GlcNAc(b1-2)Man(a1-6)]Man(b1-4)GlcNAc(b1-4)[Fuc(a1-6)]GlcNAc
# How it was run: as §1
# [19] = biological target: Fuc(a1-2)[GalNAc(a1-3)]Gal(b1-3)GlcNAc(b1-3)GalNAc
# How it was run: as §1
# [20] = biological target: Fuc(a1-2)[GalNAc(a1-3)]Gal(b1-3)GlcNAc(b1-6)GalNAc
# How it was run: as §1
# [21] = biological target: Fuc(a1-2)[GalNAc(a1-3)]Gal(b1-4)Glc
# How it was run: as §1
# [22] = biological target: Fuc(a1-2)[GalNAc(a1-3)]Gal(b1-4)GlcNAc
# How it was run: as §1
# [23] = biological target: Fuc(a1-2)[GalNAc(a1-3)]Gal(b1-4)GlcNAc(b1-2)Man
# How it was run: as §1
# [24] = biological target: Fuc(a1-2)[GalNAc(a1-3)]Gal(b1-4)GlcNAc(b1-2)Man(a1-3)[Fuc(a1-2)[GalNAc(a1-3)]Gal(b1-4)GlcNAc(b1-2)Man(a1-6)]Man(b1-4)GlcNAc(b1-4)GlcNAc
# How it was run: as §1
# [25] = biological target: Fuc(a1-2)[GalNAc(a1-3)]Gal(b1-4)GlcNAc(b1-2)Man(a1-3)[Fuc(a1-2)[GalNAc(a1-3)]Gal(b1-4)GlcNAc(b1-2)Man(a1-6)]Man(b1-4)GlcNAc(b1-4)[Fuc(a1-6)]GlcNAc
# How it was run: as §1
# [26] = biological target: Fuc(a1-2)[GalNAc(a1-3)]Gal(b1-4)GlcNAc(b1-3)Gal(b1-4)GlcNAc
# How it was run: as §1
# [27] = biological target: Fuc(a1-2)[GalNAc(a1-3)]Gal(b1-4)GlcNAc(b1-3)Gal(b1-4)GlcNAc(b1-3)Gal(b1-4)GlcNAc
# How it was run: as §1
# [28] = biological target: Fuc(a1-2)[GalNAc(a1-3)]Gal(b1-4)GlcNAc(b1-3)GalNAc
# How it was run: as §1
# [29] = biological target: Fuc(a1-2)[GalNAc(a1-3)]Gal(b1-4)GlcNAc(b1-3)[Fuc(a1-2)[GalNAc(a1-3)]Gal(b1-4)GlcNAc(b1-6)]GalNAc
# How it was run: as §1
# [30] = biological target: Fuc(a1-2)[GalNAc(a1-3)]Gal(b1-4)GlcNAc(b1-6)GalNAc
# How it was run: as §1
# [31] = biological target: Fuc(a1-2)[GalNAc(a1-3)]Gal(b1-4)[Fuc(a1-3)]GlcNAc
# How it was run: as §1
# [32] = biological target: Fuc(a1-2)[GalNAc(a1-3)]Gal(b1-4)[Fuc(a1-3)]GlcNAc(b1-3)GalNAc
# How it was run: as §1
# [33] = biological target: Fuc(a1-2)[GalNAc(a1-4)]Gal(b1-4)GlcNAc
# How it was run: as §1
# [34] = biological target: Fuc(a1-2)[GalNAc(b1-3)]Gal
# How it was run: as §1
# Fuc(a1-3)GlcNAc = biological target: Fuc(a1-3)GlcNAc
# How it was run: as §1
# [35] = biological target: Fuc(a1-3)[Gal(b1-4)]Glc6S
# How it was run: as §1
# [36] = biological target: Fuc(a1-3)[Gal(b1-4)]GlcNAc
# How it was run: as §1
# [37] = biological target: Fuc(a1-3)[Gal(b1-4)]GlcNAc(b1-2)Man
# How it was run: as §1
# [38] = biological target: Fuc(a1-3)[Gal(b1-4)]GlcNAc(b1-2)Man(a1-3)[Fuc(a1-3)[Gal(b1-4)]GlcNAc(b1-2)Man(a1-6)]Man(b1-4)GlcNAc(b1-4)GlcNAc
# How it was run: as §1
# [39] = biological target: Fuc(a1-3)[Gal(b1-4)]GlcNAc(b1-2)Man(a1-3)[Fuc(a1-3)[Gal(b1-4)]GlcNAc(b1-2)Man(a1-6)]Man(b1-4)GlcNAc(b1-4)[Fuc(a1-6)]GlcNAc
# How it was run: as §1
# [40] = biological target: Fuc(a1-3)[Gal(b1-4)]GlcNAc(b1-3)Gal(b1-3)[Fuc(a1-4)]GlcNAc
# How it was run: as §1
# [41] = biological target: Fuc(a1-3)[Gal(b1-4)]GlcNAc(b1-3)Gal(b1-4)[Fuc(a1-3)]GlcNAc
# How it was run: as §1
# [42] = biological target: Fuc(a1-3)[Gal(b1-4)]GlcNAc(b1-3)Gal(b1-4)[Fuc(a1-3)]GlcNAc(b1-3)Gal(b1-4)[Fuc(a1-3)]GlcNAc
# How it was run: as §1
# [43] = biological target: Fuc(a1-3)[Gal(b1-4)]GlcNAc(b1-3)GalNAc
# How it was run: as §1
# [44] = biological target: Fuc(a1-3)[Gal(b1-4)]GlcNAc(b1-4)Gal(b1-4)[Fuc(a1-3)]GlcNAc
# How it was run: as §1
binder,measurement,setting,value
B1,glycan array binding signal (z-score),[1],-0.223
same,glycan array binding signal (z-score),[2],-0.027
same,glycan array binding signal (z-score),[3],1.18
same,glycan array binding signal (z-score),[4],-0.101
same,glycan array binding signal (z-score),[5],1.29
same,glycan array binding signal (z-score),[6],0.017
same,glycan array binding signal (z-score),[7],0.009
same,glycan array binding signal (z-score),[8],-0.221
same,glycan array binding signal (z-score),[9],-0.19
same,glycan array binding signal (z-score),[10],0.612
same,glycan array binding signal (z-score),[11],-0.214
same,glycan array binding signal (z-score),[12],5.44
same,glycan array binding signal (z-score),[13],-0.214
same,glycan array binding signal (z-score),[14],-0.234
same,glycan array binding signal (z-score),[15],-0.237
same,glycan array binding signal (z-score),[16],-0.216
same,glycan array binding signal (z-score),[17],-0.221
same,glycan array binding signal (z-score),[18],-0.229
same,glycan array binding signal (z-score),[19],-0.222
same,glycan array binding signal (z-score),[20],-0.244
same,glycan array binding signal (z-score),[21],-0.224
same,glycan array binding signal (z-score),[22],-0.206
same,glycan array binding signal (z-score),[23],-0.22
same,glycan array binding signal (z-score),[24],-0.197
same,glycan array binding signal (z-score),[25],-0.221
same,glycan array binding signal (z-score),[26],-0.202
same,glycan array binding signal (z-score),[27],-0.173
same,glycan array binding signal (z-score),[28],-0.223
same,glycan array binding signal (z-score),[29],-0.214
same,glycan array binding signal (z-score),[30],-0.203
same,glycan array binding signal (z-score),[31],-0.197
same,glycan array binding signal (z-score),[32],-0.207
same,glycan array binding signal (z-score),[33],-0.013
same,glycan array binding signal (z-score),[34],-0.22
same,glycan array binding signal (z-score),Fuc(a1-3)GlcNAc,-0.228
same,glycan array binding signal (z-score),[35],-0.207
same,glycan array binding signal (z-score),[36],-0.224
same,glycan array binding signal (z-score),[37],-0.233
same,glycan array binding signal (z-score),[38],-0.21
same,glycan array binding signal (z-score),[39],-0.215
same,glycan array binding signal (z-score),[40],-0.201
same,glycan array binding signal (z-score),[41],-0.19
same,glycan array binding signal (z-score),[42],-0.216
same,glycan array binding signal (z-score),[43],-0.201
same,glycan array binding signal (z-score),[44],-0.215
